Test results reported in US12384801B2, “Benzothiophene, thienopyridine and thienopyrimidine derivatives for the modulation of sting” (CTXT PTY LTD, priority 2019, dated 2025).

Target: human STING (R232H) (Homo sapiens, UniProt Q86WV6)
Assay: Differential scanning fluorimetry (DSF), huSTING (R232H)
Type: binding
Settings: compound 100 μM, 2 μM protein, Tm with ligand minus Tm of protein alone (1% DMSO)
Experimental: Data were analyzed using “Meltdown analysis” protocol described by Rosa (2015).

SMILES	DSF huSTING (R232H) ΔTm	ΔTm at 100 µM
COc1c(C(N)=O)ccc2c1nc(-c1c(C(=O)O)sc3cccc(Cl)c13)n2CCn1c(-c2c(C(=O)O)sc3cccc(Cl)c23)nc2c(OC)c(C(N)=O)ccc21 (single isomer, unassigned) [Example 22.2, 3,3′-(Ethane-1,2-diylbis(5-carbamoyl-4-methoxy-1H-benzo[d]imidazole-1,2-diyl))bis(4-chlorobenzo[b]thiophene-2-carboxylic acid)]	28.13 °C	
NC(=O)c1ccc2c(c1)nc(-c1c(C(=O)O)sc3c(F)ccc(Br)c13)n2CCn1c(-c2c(C(=O)O)sc3c(F)ccc(Br)c23)nc2cc(C(N)=O)ccc21 (single isomer, unassigned) [Example 20.2, 3,3′-(Ethane-1,2-diylbis(5-carbamoyl-1H-benzo[d]imidazole-1,2-diyl))bis(4-bromo-7-fluorobenzo[b]thiophene-2-carboxylic acid)]	−4.15 °C	
COc1nccc2sc(C(=O)O)c(-c3nc4cc(C(N)=O)ccc4n3CCn3c(-c4c(C(=O)O)sc5ccnc(OC)c45)nc4cc(C(N)=O)ccc43)c12 [Example 7, 3,3′-(Ethane-1,2-diylbis(5-carbamoyl-1H-benzo[d]imidazole-1,2-diyl))bis(4-methoxythieno[3,2-c]pyridine-2-carboxylic acid)]		-0.34 °C
NC(=O)c1ccc2c(c1)nc(-c1c(C(=O)O)sc3cccc(Br)c13)n2CCn1c(-c2c(C(=O)O)sc3cccc(Br)c23)nc2cc(C(N)=O)ccc21 (single isomer, unassigned) [Example 11.1, 3,3′-(Ethane-1,2-diylbis(5-carbamoyl-1H-benzo[d]imidazole-1,2-diyl))bis(4-bromobenzo[b]thiophene-2-carboxylic acid)]	10.45 °C	
COc1ccc(F)c2sc(C(=O)O)c(-c3nc4cc(C(N)=O)ccc4n3CCn3c(-c4c(C(=O)O)sc5c(F)ccc(OC)c45)nc4cc(C(N)=O)ccc43)c12 (single isomer, unassigned) [Example 13.1, 3,3′-(Ethane-1,2-diylbis(5-carbamoyl-1H-benzo[d]imidazole-1,2-diyl))bis(7-fluoro-4-methoxybenzo[b]thiophene-2-carboxylic acid)]	11.81 °C	
COc1cccc2sc(C(=O)O)c(-c3nc4cc(C(N)=O)ccc4n3CCn3c(-c4c(C(=O)O)sc5cccc(OC)c45)nc4cc(C(N)=O)ccc43)c12 (single isomer, unassigned) [Example 5.1, 3,3′-(Ethane-1,2-diylbis(5-carbamoyl-1H-benzo[d]imidazole-1,2-diyl))bis(4-methoxybenzo[b]thiophene-2-carboxylic acid)]	7.51 °C	
CCOC(=O)c1sc2cccc(Cl)c2c1-c1nc2cc(C(N)=O)ccc2n1CCn1c(-c2c(C(=O)OCC)sc3cccc(Cl)c23)nc2cc(C(N)=O)ccc21 [Example A1, Diethyl 3,3′-(ethane-1,2-diylbis(5-carbamoyl-1H-benzo[d]imidazole-1,2-diyl))bis(4-chlorobenzo[b]thiophene-2-carboxylate)]		18.9 °C
NC(=O)c1ccc2c(c1)nc(-c1c(C(=O)O)sc3ccccc13)n2CCn1c(-c2c(C(=O)O)sc3ccccc23)nc2cc(C(N)=O)ccc21 [Example 9, 3,3′-(Ethane-1,2-diylbis(5-carbamoyl-1H-benzo[d]imidazole-1,2-diyl))bis(benzo[b]thiophene-2-carboxylic acid)]		1.03 °C
NC(=O)c1ccc2c(c1)nc(-c1c(C(=O)O)sc3cccc(Cl)c13)n2CCCn1c(-c2c(C(=O)O)sc3cccc(Cl)c23)nc2cc(C(N)=O)ccc21 (single isomer, unassigned) [Example 4.1, 3,3′-(Propane-1,3-diylbis(5-carbamoyl-1H-benzo[d]imidazole-1,2-diyl))bis(4-chlorobenzo[b]thiophene-2-carboxylic acid)]	−2.0 °C	
NC(=O)c1ccc2c(c1)nc(-c1c(C(=O)O)sc3c(F)ccc(Cl)c13)n2CCn1c(-c2c(C(=O)O)sc3c(F)ccc(Cl)c23)nc2cc(C(N)=O)ccc21 (single isomer, unassigned) [Example 2.1, 3,3′-(Ethane-1,2-diylbis(5-carbamoyl-1H-benzo[d]imidazole-1,2-diyl))bis(4-chloro-7-fluorobenzo[b]thiophene-2-carboxylic acid)]		11.8 °C
N#Cc1cccc2sc(C(=O)O)c(-c3nc4cc(C(N)=O)ccc4n3CCn3c(-c4c(C(=O)O)sc5cccc(C#N)c45)nc4cc(C(N)=O)ccc43)c12 [Example 17, 3,3′-(Ethane-1,2-diylbis(5-carbamoyl-1H-benzo[d]imidazole-1,2-diyl))bis(4-cyanobenzo[b]thiophene-2-carboxylic acid)]		-3.79 °C
NC(=O)c1ccc2c(c1)nc(-c1c(C(=O)O)sc3c(F)ccc(Cl)c13)n2CCn1c(-c2c(C(=O)O)sc3c(F)ccc(Cl)c23)nc2cc(C(N)=O)ccc21 (single isomer, unassigned) [Example 2.2, 3,3′-(Ethane-1,2-diylbis(5-carbamoyl-1H-benzo[d]imidazole-1,2-diyl))bis(4-chloro-7-fluorobenzo[b]thiophene-2-carboxylic acid)]	6.9 °C	
CCOC(=O)c1sc2cccc(Cl)c2c1-c1nc2c(OC)c(C(N)=O)ccc2n1CCn1c(-c2c(C(=O)OCC)sc3cccc(Cl)c23)nc2c(OC)c(C(N)=O)ccc21 [Example 21, Diethyl 3,3′-(ethane-1,2-diylbis(5-carbamoyl-4-methoxy-1H-benzo[d]imidazole-1,2-diyl))bis(4-chlorobenzo[b]thiophene-2-carboxylate)]		37.6 °C
COc1cccc2sc(C(=O)O)c(-c3nc4cc(C(N)=O)ccc4n3CCn3c(-c4c(C(=O)O)sc5cccc(OC)c45)nc4cc(C(N)=O)ccc43)c12 (single isomer, unassigned) [Example 5.2, 3,3′-(Ethane-1,2-diylbis(5-carbamoyl-1H-benzo[d]imidazole-1,2-diyl))bis(4-methoxybenzo[b]thiophene-2-carboxylic acid)]		11.3 °C
NC(=O)c1ccc2c(c1)nc(-c1c(C(=O)O)sc3cccc(C(F)(F)F)c13)n2CCn1c(-c2c(C(=O)O)sc3cccc(C(F)(F)F)c23)nc2cc(C(N)=O)ccc21 (single isomer, unassigned) [Example 19.2, 3,3′-(Ethane-1,2-diylbis(5-carbamoyl-1H-benzo[d]imidazole-1,2-diyl))bis(4-(trifluoromethyl)benzo[b]thiophene-2-carboxylic acid)]	1.85 °C	
COc1ccc(F)c2sc(C(=O)O)c(-c3nc4cc(C(N)=O)ccc4n3CCn3c(-c4c(C(=O)O)sc5c(F)ccc(OC)c45)nc4cc(C(N)=O)ccc43)c12 (single isomer, unassigned) [Example 13.2, 3,3′-(Ethane-1,2-diylbis(5-carbamoyl-1H-benzo[d]imidazole-1,2-diyl))bis(7-fluoro-4-methoxybenzo[b]thiophene-2-carboxylic acid)]	−2.9 °C	
NC(=O)c1ccc2c(c1)nc(-c1c(C(=O)O)sc3cccc(Cl)c13)n2CCn1c(-c2c(C(=O)O)sc3cccc(Cl)c23)nc2cc(C(N)=O)ccc21 (single isomer, unassigned) [Example 1.1, 3,3′-(Ethane-1,2-diylbis(5-carbamoyl-1H-benzo[d]imidazole-1,2-diyl))bis(4-chlorobenzo[b]thiophene-2-carboxylic acid)]	12.1 °C	
Cc1cccc2sc(C(=O)O)c(-c3nc4cc(C(N)=O)ccc4n3CCn3c(-c4c(C(=O)O)sc5cccc(C)c45)nc4cc(C(N)=O)ccc43)c12 (single isomer, unassigned) [Example 15.1, 3,3′-(Ethane-1,2-diylbis(5-carbamoyl-1H-benzo[d]imidazole-1,2-diyl))bis(4-methylbenzo[b]thiophene-2-carboxylic acid)]		6.6 °C
NC(=O)c1ccc2c(c1)nc(-c1c(C(=O)O)sc3c(F)ccc(Br)c13)n2CCn1c(-c2c(C(=O)O)sc3c(F)ccc(Br)c23)nc2cc(C(N)=O)ccc21 (single isomer, unassigned) [Example 20.1, 3,3′-(Ethane-1,2-diylbis(5-carbamoyl-1H-benzo[d]imidazole-1,2-diyl))bis(4-bromo-7-fluorobenzo[b]thiophene-2-carboxylic acid)]	14.94 °C	
NC(=O)c1ccc2c(c1)nc(-c1c(C(=O)O)sc3cccc(Cl)c13)n2CCCn1c(-c2c(C(=O)O)sc3cccc(Cl)c23)nc2cc(C(N)=O)ccc21 (single isomer, unassigned) [Example 4.2, 3,3′-(Propane-1,3-diylbis(5-carbamoyl-1H-benzo[d]imidazole-1,2-diyl))bis(4-chlorobenzo[b]thiophene-2-carboxylic acid)]	−0.91 °C	
NC(=O)c1ccc2c(c1)nc(-c1c(C(=O)O)sc3cccc(C(F)(F)F)c13)n2CCn1c(-c2c(C(=O)O)sc3cccc(C(F)(F)F)c23)nc2cc(C(N)=O)ccc21 (single isomer, unassigned) [Example 19.1, 3,3′-(Ethane-1,2-diylbis(5-carbamoyl-1H-benzo[d]imidazole-1,2-diyl))bis(4-(trifluoromethyl)benzo[b]thiophene-2-carboxylic acid)]	8.21 °C	
NC(=O)c1ccc2c(c1)nc(-c1c(C(=O)O)sc3cccc(Cl)c13)n2CCn1c(-c2c(C(=O)O)sc3cccc(Cl)c23)nc2cc(C(N)=O)ccc21 (single isomer, unassigned) [Example 1.2, 3,3′-(Ethane-1,2-diylbis(5-carbamoyl-1H-benzo[d]imidazole-1,2-diyl))bis(4-chlorobenzo[b]thiophene-2-carboxylic acid)]	−4.3 °C	
NC(=O)c1ccc2c(c1)nc(-c1c(C(=O)O)sc3cccc(Br)c13)n2CCn1c(-c2c(C(=O)O)sc3cccc(Br)c23)nc2cc(C(N)=O)ccc21 (single isomer, unassigned) [Example 11.2, 3,3′-(Ethane-1,2-diylbis(5-carbamoyl-1H-benzo[d]imidazole-1,2-diyl))bis(4-bromobenzo[b]thiophene-2-carboxylic acid)]	−1.64 °C	
